Reference: the supplement of paper PMC10037445
The full ranking holds about 2,900 compounds; the median of “NF-kB SEAP reporter activity, fold change vs agonist alone” is about 0.99, and the highest 2% start at about 2.6. Some of the results follow.

Key:
RAW-Dual [1] = assay: NF-kB SEAP reporter activity, fold change vs agonist alone; cytotoxicity flag (confluency mask): not cytotoxic; higher = enhanced NF-kB activity
Method in brief: (§1)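 RAW-Dual macrophages (50,000 cells/well in DMEM, 384-well plates) received 50 nL of library stock by pin tool, then a PRR agonist 1 h later, and were kept at 37 °C, 5% CO2. After 20 hours, supernatant was read for IRF by QuantiLuc luminescence and for NF-κB by QuantiBlue absorbance at 620 nm. Reporter activity is fold change over agonist-alone wells. Cytotoxic wells had IncuCyte confluency below 70% of agonist controls in both mask sets.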

RAW-Dual [2] = assay: NF-kB SEAP reporter activity, fold change vs agonist alone; higher = enhanced NF-kB activity; settings: library stock concentration (final ~1000-fold dilution): 10 mM
Method in brief: as §1

RAW-Dual [3] = assay: NF-kB SEAP reporter activity, fold change vs agonist alone; cytotoxicity flag (confluency mask): cytotoxic (confluency <70% of control); higher = enhanced NF-kB activity
Method in brief: as §1

[4] = agonist: ODN 1826 (TLR9) 0.5 ug/mL
[5] = agonist: Pam2CSK4 (TLR2/6) 0.1 ug/mL
[6] = agonist: Pam3CSK4 (TLR2/1) 0.1 ug/mL
[7] = cytotoxicity flag (confluency mask): not cytotoxic, agonist: Imiquimod (TLR7) […]
[8] = cytotoxicity flag (confluency mask): not cytotoxic, agonist: MPLA (TLR4) […]
[9] = cytotoxicity flag (confluency mask): cytotoxic (confluency <70% of control), agonist: Imiquimod (TLR7) […]
[10] = cytotoxicity flag (confluency mask): cytotoxic (confluency <70% of control), agonist: MPLA (TLR4) […]

CC(C)n1nc(-c2ccc(NC(=O)Nc3cc(C(F)(F)F)ccc3F)cc2)c2c(N)ncnc21 (library stock concentration (final ~1000-fold dilution): 10 mM)
NF-kB SEAP reporter activity (RAW-Dual [1]; agonist: LPS (TLR4) 0.1 ug/mL): 0.398
NF-kB SEAP reporter activity (RAW-Dual [1]; [4]): 0.196
NF-kB SEAP reporter activity (RAW-Dual [1]; [5]): 0.0706
NF-kB SEAP reporter activity (RAW-Dual [1]; [6]): 0.216

CC(C)n1nc(-c2ccc(NC(=O)Nc3cc(C(F)(F)F)ccc3F)cc2)c2c(N)ncnc21
NF-kB SEAP reporter activity (RAW-Dual [2]; [7]): 0.149
NF-kB SEAP reporter activity (RAW-Dual [2]; [8]): 0.261

N#Cc1c(NC(=O)c2cccc3ccccc23)sc2c1CCCC2
NF-kB SEAP reporter activity (RAW-Dual [2]; [7]): 1.46
NF-kB SEAP reporter activity (RAW-Dual [2]; [8]): 1.94

N#Cc1c(NC(=O)c2cccc3ccccc23)sc2c1CCCC2 (library stock concentration (final ~1000-fold dilution): 10 mM)
NF-kB SEAP reporter activity (RAW-Dual [1]; agonist: LPS (TLR4) 0.1 ug/mL): 2.36
NF-kB SEAP reporter activity (RAW-Dual [1]; [4]): 2.18
NF-kB SEAP reporter activity (RAW-Dual [1]; [5]): 1.25
NF-kB SEAP reporter activity (RAW-Dual [1]; [6]): 1.4

C=CC(=O)Nc1cccc(Nc2nc(Nc3ccc(OCCOC)cc3)ncc2F)c1 (library stock concentration (final ~1000-fold dilution): 10 mM)
NF-kB SEAP reporter activity (RAW-Dual [1]; agonist: LPS (TLR4) 0.1 ug/mL): 1.12
NF-kB SEAP reporter activity (RAW-Dual [1]; [4]): 0.8
NF-kB SEAP reporter activity (RAW-Dual [1]; [5]): 0.545
NF-kB SEAP reporter activity (RAW-Dual [1]; [6]): 0.672

C=CC(=O)Nc1cccc(Nc2nc(Nc3ccc(OCCOC)cc3)ncc2F)c1
NF-kB SEAP reporter activity (RAW-Dual [2]; [7]): 1.11
NF-kB SEAP reporter activity (RAW-Dual [2]; [8]): 1.69

CCC(=O)Nc1cccc(Oc2nc(Nc3ccc(N4CCN(C)CC4)cc3OC)ncc2Cl)c1
NF-kB SEAP reporter activity (RAW-Dual [2]; [9]): 1.1
NF-kB SEAP reporter activity (RAW-Dual [2]; [10]): 1.7

CCC(=O)Nc1cccc(Oc2nc(Nc3ccc(N4CCN(C)CC4)cc3OC)ncc2Cl)c1 (library stock concentration (final ~1000-fold dilution): 10 mM)
NF-kB SEAP reporter activity (RAW-Dual [3]; agonist: LPS (TLR4) 0.1 ug/mL): 1.65
NF-kB SEAP reporter activity (RAW-Dual [3]; [4]): 0.875
NF-kB SEAP reporter activity (RAW-Dual [3]; [5]): 0.603
NF-kB SEAP reporter activity (RAW-Dual [3]; [6]): 1.02

O=S(=O)(Cl)c1ccc(-c2ccccc2)cc1 (library stock concentration (final ~1000-fold dilution): 10 mM)
NF-kB SEAP reporter activity (RAW-Dual [1]; agonist: LPS (TLR4) 0.1 ug/mL): 1.31
NF-kB SEAP reporter activity (RAW-Dual [1]; [4]): 0.979
NF-kB SEAP reporter activity (RAW-Dual [1]; [5]): 0.82
NF-kB SEAP reporter activity (RAW-Dual [1]; [6]): 0.849

O=S(=O)(Cl)c1ccc(-c2ccccc2)cc1
NF-kB SEAP reporter activity (RAW-Dual [2]; [8]): 1.05

Nc1nc(Cl)nc2c1ncn2C1CC(O)C(CO)O1 (stereo not drawn)
NF-kB SEAP reporter activity (RAW-Dual [2]; [9]): 2.1
NF-kB SEAP reporter activity (RAW-Dual [2]; [10]): 1.55

Nc1nc(Cl)nc2c1ncn2C1CC(O)C(CO)O1 (stereo not drawn) (library stock concentration (final ~1000-fold dilution): 10 mM)
NF-kB SEAP reporter activity (RAW-Dual [3]; agonist: LPS (TLR4) 0.1 ug/mL): 1.8
NF-kB SEAP reporter activity (RAW-Dual [3]; [4]): 2.13
NF-kB SEAP reporter activity (RAW-Dual [3]; [5]): 1.43
NF-kB SEAP reporter activity (RAW-Dual [3]; [6]): 1.8

O=C(c1ccccc1)c1ccc2n1CCC2C(=O)O (stereo not drawn)
NF-kB SEAP reporter activity (RAW-Dual [2]; [7]): 0.931
NF-kB SEAP reporter activity (RAW-Dual [2]; [8]): 1.04

O=C(c1ccccc1)c1ccc2n1CCC2C(=O)O (stereo not drawn) (library stock concentration (final ~1000-fold dilution): 10 mM)
NF-kB SEAP reporter activity (RAW-Dual [1]; agonist: LPS (TLR4) 0.1 ug/mL): 0.892
NF-kB SEAP reporter activity (RAW-Dual [1]; [4]): 0.994
NF-kB SEAP reporter activity (RAW-Dual [1]; [5]): 1.05
NF-kB SEAP reporter activity (RAW-Dual [1]; [6]): 1.21

CCC(CC)(NC(=O)C(C)C)C(=O)NC(CCCNC(=N)N)C(=O)NC1(C(=O)NC(c2ccc(F)cc2)c2ccc(F)cc2)CCCC1 (stereo not drawn)
NF-kB SEAP reporter activity (RAW-Dual [2]; [7]): 1.08
NF-kB SEAP reporter activity (RAW-Dual [2]; [8]): 0.867

CCC(CC)(NC(=O)C(C)C)C(=O)NC(CCCNC(=N)N)C(=O)NC1(C(=O)NC(c2ccc(F)cc2)c2ccc(F)cc2)CCCC1 (stereo not drawn) (library stock concentration (final ~1000-fold dilution): 10 mM)
NF-kB SEAP reporter activity (RAW-Dual [1]; agonist: LPS (TLR4) 0.1 ug/mL): 0.847
NF-kB SEAP reporter activity (RAW-Dual [1]; [4]): 0.788
NF-kB SEAP reporter activity (RAW-Dual [1]; [5]): 0.957
NF-kB SEAP reporter activity (RAW-Dual [1]; [6]): 0.971

Cc1cccc(-c2nc(C(C)(C)C)[nH]c2-c2ccc3nccnc3c2)n1 (library stock concentration (final ~1000-fold dilution): 10 mM)
NF-kB SEAP reporter activity (RAW-Dual [1]; agonist: LPS (TLR4) 0.1 ug/mL): 1.69
NF-kB SEAP reporter activity (RAW-Dual [1]; [4]): 1.15
NF-kB SEAP reporter activity (RAW-Dual [1]; [5]): 1.05
NF-kB SEAP reporter activity (RAW-Dual [1]; [6]): 1.12

Cc1cccc(-c2nc(C(C)(C)C)[nH]c2-c2ccc3nccnc3c2)n1
NF-kB SEAP reporter activity (RAW-Dual [2]; [7]): 1.09
NF-kB SEAP reporter activity (RAW-Dual [2]; [8]): 1.26
